This is one part of the list. Read counts after selection give these values, which scatter widely.
The substances below were run on SARS-CoV-2 3CLpro (nsp5) (assay: substrate phage enrichment score (protease-eluted vs HEPES control, +1 offset) (ratio); higher = better cleaved substrate). Conditions: selection round: 3; protease elution time: 0.5 h.
Protocol: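 Random heptapeptide substrate phage display (M13 pIII fusion, heptapeptide between an N-terminal biotinylated AviTag GLNDIFEAQKIEWHE and pIII; phages immobilised on streptavidin) eluted by cleavage with 50 nM protease in 20 mM HEPES at 37 °C. Selected phages were NGS sequenced, and the enrichment score is (reads in protease sample + 1)/(reads in HEPES blank-selection control + 1).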

Row | Substance | substrate phage enrichment score
1 | STMQIPR | 2.54
2 | YQGGSAA | 1.15
3 | SRQEMRA | 1
4 | EERALPE | 0.923
5 | QCHFSPK | 7.33
6 | VQGGSAA | 0.737
7 | TEPAIGV | > 29
8 | RPKLVTG | 0.812
9 | PEEQNTS | 30.5
10 | TATPSLQ | > 51
11 | KSPVLHP | > 26
12 | IPGAWTS | 5.5
13 | HPAPSHR | 16.5
14 | VRCIPRP | > 25
15 | TCTEMPR | 0.765
16 | WSAAAHH | 0.778
17 | CFKQIQY | > 29
18 | PCDHHHH | 6.2
19 | WENSYGR | 0.115
20 | PTRSCHA | 7
21 | TQLSPGQ | > 32
22 | RGAAHHH | 0.802
23 | SSFTIMQ | > 63
24 | VNDSRDG | > 30

Row | Substance | substrate phage enrichment score
25 | SPFDCNR | > 25
26 | CKDDKLG | > 21
27 | SSGVPVL | 12.5
28 | KPAAHHH | 1.06
29 | DLSFSDC | > 24
30 | WPCYRTS | > 35
31 | VSRYDNV | 3.83
32 | LTDKAHR | > 28
33 | THPDGER | 2.08
34 | KGADTAE | 2.5
35 | KPGARCG | 128
36 | ATTTLPT | > 27
37 | FRHRSDA | 1.08
38 | SGGHMGC | > 21
39 | PGDTTAA | > 23
40 | CAAAQQQ | 0.818
41 | IQKPCAY | 4.6
42 | TCAGQPD | 2.83
43 | VRPHIII | 1.18
44 | VSCPMKH | 0.909
45 | HPRCYIP | > 24
46 | VPAHPRT | 11.6
47 | QVRGTIR | 0.889
48 | QQYGSEC | > 29

Row | Substance | substrate phage enrichment score
49 | LTTSPAS | 6.6
50 | ARNCVLQ | 13
51 | HTLLQSQ | > 23
52 | SLSAPST | 0.8
53 | AEFKQPV | > 26
54 | SQRVGNS | 1.18
55 | PNFQGGS | 3.17
56 | LTGTGYS | > 24
57 | EQAKHRI | 11.5
58 | RAIGGVA | > 25
59 | SGRANLT | 11.5
60 | ANRWTSR | 7.25
61 | QYNADRP | 12
62 | EAPYKPH | 7.67
63 | MRCTLPA | > 26
64 | HEKCYLQ | > 64
65 | RVQTLRK | > 26
66 | EPRSTRG | > 74
67 | PRPTTQK | 11.5
68 | SPAAHHH | 1.05
69 | STLTQDW | 17.5
70 | HVAAHHH | 1.07
71 | CSTQRPK | 6.33
72 | KDLPNLQ | 54

Row | Substance | substrate phage enrichment score
73 | LRPHIII | 1.42
74 | SREKSQG | > 55
75 | SKPLKGC | 2.75
76 | GHYHLPC | > 21
77 | CDASVSA | > 25
78 | QATRLQS | > 40
79 | DHRPKVT | > 42
80 | VTRCVLQ | 11.5
81 | SAPAHHH | 0.692
82 | TTEQGMS | > 46
83 | LENKVEQ | > 26
84 | KDMRDSS | > 28
85 | TDRANDA | 1.88
86 | ESQAVLQ | 30.4
87 | SQIGSPQ | 2.83
88 | TNKCYTP | > 22
89 | SGGYGNN | > 62
90 | TADAEIY | 22
91 | TRRPAQQ | 11.3
92 | LTGVDCA | > 59
93 | EPYFQGG | 2
94 | LRTSGCQ | 10.5
95 | PHIHLRD | > 32
96 | VNLTTPK | 0.353

Row | Substance | substrate phage enrichment score
97 | GPTTELM | 7
98 | RSAPTTT | 8
99 | SVRLQSG | > 74
100 | RPSSSME | 4
101 | TNVPFLM | > 25
102 | SNARGDR | 1.6
103 | MPRCTQS | 3.6
104 | QQSLICR | > 37
105 | KSSPPAH | > 108
106 | PTAAHHH | 0.804
107 | CRRSIRD | 1.15
108 | TKCPTRS | 3.6
109 | WTAAHHH | 0.955
110 | MKNPAHN | 7.75
111 | NLTTKLH | > 22
112 | KSCPLAA | 12
113 | RTVPLNR | 6.17
114 | SRHSLET | > 52
115 | KNRTMLQ | > 51
116 | ATRCVSK | 8.67
117 | QTPGPGL | 1.09

— the supplement of paper PMC10185492
